Out of some 43,000 compounds screened, about 200 (0.47%) were called active. Not shown: some 12% with an inconclusive outcome. Calls follow the shape of the dose curve; as a rule, active = well fitted cell-killing curve with a large enough effect; inconclusive = small, poorly fitted or top-dose-only effect, or effect the other way; inactive = flat fitted curve, though single readings scatter. Some of the results follow.
assay: Cell viability qHTS assay in S16 Pmp22-F2sN cells; conditions: S16 Pmp22-F2sN Schwann cells (luciferase reporters placed in the Pmp22 gene) viability, CellTiter-Glo, 24 h; series mostly up to 57.5 µM; activity change, negative = cytotoxicity: at the top concentration; also: nearly all actives have a fitted effect of over 65% in size
Procedure, shortened: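 Seed 500-1,000 S16 Pmp22-F2sN cells per well in phenol-red-free DMEM with 10% heat-inactivated FBS; pin-add 23 nL compound; incubate 24 h at 37C; add CellTiter-Glo, wait 15 min protected from light; read luminescence.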
% is scaled to controls: 0 for no effect and ±100 for the full control effect.

SMILES	activity change, negative = cytotoxicity
COc1ccc(CCNC(=O)C2(c3cccs3)CCOCC2)cc1OC	inactive: 3.61%
CCCOc1cccc(C(=O)Nc2cccc(NC(=O)c3ccc(C(C)(C)C)cc3)c2)c1	inactive: -0.402%
COc1cc(OC)cc(C(=O)Nc2ccccc2-c2nc3ccccc3s2)c1	inactive: -2.84%
COc1ccc2[nH]c(C)c(CCNS(=O)(=O)c3cc(F)ccc3OC)c2c1	inactive: 8.68%
COc1cc(-c2ccno2)ccc1S(=O)(=O)N1CCN(c2ccc(C(C)=O)cc2)CC1	inactive: -20.8%
COc1ccc(-c2cc(C(F)(F)F)n3nc(C(=O)Nc4cc(Cl)cc(Cl)c4)cc3n2)cc1	inactive: 7.22%
CCCCC(=O)Nc1ccccc1C(=O)OCc1cc(=O)n2nc(C3CCCCC3)sc2n1	inactive: -2.16%
COc1ccc(-c2nc3c4ccccc4n(CC(=O)Nc4cc(F)ccc4F)c(=O)n3n2)cc1	inactive: 11.8%
CCOc1ccc(OC(=O)c2cn(-c3ccc(C)cc3)c(=O)c3ccccc23)cc1	inactive: 3.55%
Cc1cc(C)c(NC(=O)C(C)n2nc(-c3ccc(C)c(C)c3)ccc2=O)c(C)c1 (configuration not stated)	inactive: 4.99%
Cc1cc(C)cc(OCC(=O)NCCc2nc3ccccc3[nH]2)c1	inactive: 5.76%
COc1ccc(-c2cc(C(C)=O)c(C)n2CCC(=O)NCc2ccccc2OC)cc1	inactive: 7.74%
Cc1nn(-c2ccccc2)c(OC(=O)C(C)C)c1Sc1ccccc1	inactive: -1.61%
Brc1cccc(CNCCSc2nnnn2-c2ccccc2)c1	inactive: 6.53%
CCc1ccccc1N(C)C(=O)Cc1c(C(=O)O)c(C)cn1C	inactive: -1.4%
COc1ccc(Cn2c(SCc3ccc(C(=O)NC4CCCC4)cc3)nc3ccncc32)cc1	inactive: 4.51%
CCOC(=O)c1c(C)oc2ncnc(N3CCN(c4ccccc4OC)CC3)c12	inactive: 7.69%
O=C(COc1ccc2oc3c(c2c1)CCCC3)Nc1ccc(Br)cc1	inactive: 22.2%
COC(=O)c1cccc(-n2c(CCC(=O)O)ccc2-c2ccc(OC)cc2)c1	inactive: -22.2%
Cc1ccc(Cl)cc1NC(=O)C(C)n1nnc2sc(-c3ccccc3)cc2c1=O (configuration not stated)	inactive: 3.36%
COc1cccc(CNC(=O)CCc2cn(Cc3ccccc3Cl)c3ccccc23)c1	inactive: -23%
CCCN1CCN(CCNC(=O)Nc2ccc(OC)cc2OC)CC1	inactive: 10.4%
CCc1ccc(C(=O)c2cn(CC(=O)Nc3ccc(F)cc3)c3ccc(OC)cc3c2=O)cc1	inactive: 0.14%
CC(=O)N1CCN(c2csc3ccc(F)cc3c2=O)CC1	inactive: 4.63%

SMILES	activity change, negative = cytotoxicity
COc1ccc(NC(=O)Cn2c(=O)n(C(C)C)c(=O)c3oc4ccccc4c32)cc1Cl	inactive: -10.1%
Cc1ccccc1NC(=O)CSc1nc(-c2ccccc2C)nc2cc(=O)[nH]n12	inactive: -16.9%
COc1ccccc1N(CC(=O)NCCSCc1ccccc1)S(=O)(=O)c1ccc(C)cc1	inactive: 15.5%
COCCNC(=O)Cn1nc(N2CCN(c3ccccc3OC)CC2)ccc1=O	inactive: 0.37%
CCOc1ccc(NC(=O)N2CCN(S(=O)(=O)c3ccc4c(ccn4C)c3)CC2)cc1	inactive: -0.419%
Cc1ccc(N(CC(=O)NCc2ccc(Cl)cc2)S(=O)(=O)N(C)C)cc1	inactive: 13.9%
COc1ccc(NC(=O)CSc2nc(-c3ccc(OC)cc3)[nH]c2-c2ccc(OC)cc2)cc1	inactive: 2.56%
Cc1ccc(C(=O)Nc2cccc(-c3nc4cccnc4s3)c2C)cc1	inactive: -23.5%
Cc1cccc(CN2C(=O)c3ccccc3S(=O)(=O)c3ccc(C(=O)NCCC4=CCCCC4)cc32)c1	inactive: 12.7%
COc1ccc(-c2cc(OC(=O)c3ccc(Cl)cc3)c3c(C)oc(C)c3c(=O)c2)cc1	inactive: -18.1%
COc1ccc(-c2nc3ccccc3s2)cc1NC(=O)COc1ccc(C)cc1	inactive: -6.98%
CCOc1ccc(NC(=O)CSc2nccn2Cc2ccco2)cc1	inactive: 17.9%
COc1ccc(NC(=O)c2cc3nc(-c4ccc(C)c(C)c4)cc(C(F)(F)F)n3n2)cc1	inactive: 17%
CCc1ccccc1NC(=O)c1ccc2c(O)c(S(=O)(=O)c3ccccc3)c(=O)[nH]c2c1	inactive: 1.65%
CCC1CCCCN1S(=O)(=O)c1ccc(C(=O)Nc2sc3c(c2C(=O)NC)CCC3)cc1 (configuration not stated)	inactive: -0.93%
CCOc1ccc(CCNC(=O)c2cn(CC)c3ccc(S(=O)(=O)N4CCc5ccccc5C4)cc3c2=O)cc1OCC	inactive: -13.5%
CCn1c2ccccc2c2cc(CN3CCN(Cc4ccccc4F)CC3)ccc21	inactive: 17.5%
CCc1ccccc1N1C(=O)N(Cc2ccc(C#N)cc2)c2ccccc2S1(=O)=O	inactive: 12.8%
CC(C)Sc1oc(-c2cccs2)nc1S(=O)(=O)c1ccc(Cl)cc1	inactive: 3.39%
CCOc1ccc(OCC)c(NS(=O)(=O)c2cc(-c3cc(C)no3)ccc2C)c1	inactive: -1.05%
CCOc1ccc(NC(=O)C2CCCN(S(=O)(=O)c3cccc4nonc34)C2)cc1 (configuration not stated)	inactive: 1.4%
Cc1ccc(Nc2c(-c3cccs3)nc3nc(C)cc(C)n23)cc1	inactive: 1.79%
CC(=O)c1ccc(NC(=O)CSc2nnc3ccc(-c4ccc(Cl)cc4)nn23)cc1	inactive: 9.38%

Reference: PubChem BioAssay AID1508642 (National Center for Advancing Translational Sciences (NCATS), 2021)
